# The full ranking holds about 33,000 sequences; the median of “E-score (-0.5 to 0.5)” is about -0.013, and the highest 2% start at about 0.3. The list shows a part of the results.
# Target: T1, Msn1 (UniProt P22148)
# T1 sequence: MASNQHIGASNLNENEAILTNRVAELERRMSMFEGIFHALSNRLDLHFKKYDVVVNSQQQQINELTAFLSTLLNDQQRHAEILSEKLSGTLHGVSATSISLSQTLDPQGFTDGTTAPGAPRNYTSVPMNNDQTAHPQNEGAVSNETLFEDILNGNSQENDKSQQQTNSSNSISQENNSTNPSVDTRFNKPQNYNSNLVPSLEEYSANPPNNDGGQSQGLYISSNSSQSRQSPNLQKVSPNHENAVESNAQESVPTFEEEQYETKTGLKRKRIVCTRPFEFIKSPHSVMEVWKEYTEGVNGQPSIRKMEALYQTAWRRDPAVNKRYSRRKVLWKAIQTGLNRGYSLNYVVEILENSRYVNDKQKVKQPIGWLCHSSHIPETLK
# Experiment: PBM E-score (8-mer binding enrichment) (E-score (-0.5 to 0.5)); higher = stronger / more preferred TF binding; most listed sequences are background and not binding sites
# Details: protein concentration: 200 nM; construct: GST-full length
# Description: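 Universal 'all 10-mer' protein binding microarrays (Agilent AMADID 015681) probed with GST-tagged S. cerevisiae TFs (full-length or DBD) made by in vitro transcription/translation (PURExpress), about 100-200 nM. Bound TF was detected with fluorescent anti-GST. Each ungapped 8-mer (which stands for itself and its reverse complement) is scored by the PBM enrichment score (E-score), a modified Wilcoxon-Mann-Whitney statistic from -0.5 to +0.5, computed with the Universal PBM Analysis Suite. Scale: above 0.35 generally sequence-specific binding.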
row,Sequence,PBM E-score
1,CTTCGAAC,0.0351
2,GACTCACC,-0.239
3,GCCACTCA,-0.0732
4,TATAGGAA,0.0279
5,CAGTTGTC,0.32
6,GTATCAGA,-0.0558
7,GGACTGCA,-0.0495
8,GACTAGAA,0.0925
9,CTTGGGTA,0.0613
10,ATCGGCGG,0.00353
11,ACATCAGC,-0.0793
12,CGGACCCC,-0.192
13,AAACTAAT,0.205
14,ATCTTCGG,0.146
15,GTTACAAC,0.0825
16,ACGTGCCT,-0.148
17,ATTTGGGA,0.144
18,ATCCCATC,-0.164
19,ATGTCAAT,0.233
20,GTCCCCAC,0.0565
21,GAGTGGTA,-0.02
22,AGCCTGCG,-0.0627
23,AATCGAAC,-0.126
24,GCAGATTA,-0.0358
25,CAGTGCCG,-0.0209

row,Sequence,PBM E-score
1,CGGGGTAG,-0.22
2,AATTATTC,0.191
3,AGAAATTC,0.0525
4,ACCACCAC,-0.143
5,AGCTAAGG,-0.267
6,AAATCGCA,0.072
7,CCTTGTGA,-0.0976
8,CGCTGCCC,-0.327
9,CGGTTTCA,0.0403
10,CAAGGTGG,0.00095
11,CACAACGA,-0.00713
12,ATGGAGGA,-0.0388
13,GAGGCCTA,-0.137
14,CTGAGCGA,0.0585
15,AGGGCGCA,-0.181
16,CACGTATC,0.0358
17,CAGGGTCA,-0.105
18,GGTAAAAC,-0.0157
19,ACAATCCG,0.23
20,CTAGCAAG,-0.121
21,GGAGAACA,0.0888
22,CAAACCTG,-0.0521
23,CAGAGAGA,-0.0985
24,AAATCCAA,0.00404
25,ATAACTGG,-0.0196

row,Sequence,PBM E-score
1,GAAGGAGA,-0.25
2,GATAGCAA,0.088
3,ATGCATTA,0.198
4,AGGACAAT,0.483
5,ACTGAGCC,0.0458
6,ACACAGAG,-0.108
7,CCGTTATA,0.0612
8,GAGTCAGA,0.00841
9,AAAAACGG,0.16
10,CCAATTAA,0.0133
11,AGTGTTAA,0.0169
12,ACTAACAG,0.22
13,AACTCCGA,0.142
14,CTGTAGAA,-0.0675
15,AGAGGAAA,0.11
16,CCGGCTGC,-0.186
17,CAATAAAA,0.194
18,AATCTCTG,-0.00942
19,AGAGAGAA,-0.0619
20,AAAAGGCC,-0.093
21,CTGATGGA,-0.0214
22,ACGCCTTG,0.0227
23,AGTCTGAA,0.029
24,AAAGCTTT,0.195
25,ACTCAGAC,0.207

row,Sequence,PBM E-score
1,AGTACGGA,0.15
2,AAAACAGT,0.184
3,ACAGCCCG,-0.146
4,ATAGTCTC,0.16
5,ATGAGTTC,0.0167
6,ATAACCGG,-0.00703
7,AGACTATG,0.0207
8,GTATTATA,0.253
9,ATAATTGG,0.073
10,ATATGAAA,0.147
11,AATATAGT,0.234
12,CTGCAGTC,-0.0842
13,TCCGACCA,0.0392
14,TATCAGAA,0.132
15,AAATTACC,0.14
16,AGAGTAGC,-0.196
17,GAGAAAAC,0.0544
18,AAAAAAAT,0.159
19,GAAAACGA,0.0898
20,CTCAGAGC,-0.244
21,TGGTAACA,0.0506
22,CGCGCCTA,-0.0716
23,GAGCAGAA,-0.00842
24,GGATAGGA,0.0457
25,ACTTGGAT,0.138

row,Sequence,PBM E-score
1,TGAGTAAA,-0.023
2,TTAAATAA,0.0386
3,ACAAGGCG,0.159
4,TCGCGCAA,0.206
5,ATCCGTAA,-0.0135
6,CGTGGAGC,-0.194
7,CAGGAATG,-0.173
8,AACACATT,0.0513
9,CAACACTA,0.148
10,GAAATGGA,-0.0913
11,ACTATGCT,0.034
12,AGTTGTCG,0.168
13,AGATGTCG,0.0151
14,ACCCGCGA,0.0658
15,AACTCGGG,0.0969
16,AGGCGGCA,-0.177
17,CCTAAGAC,-0.0344
18,GGCAACCC,-0.211
19,CATGGTCG,0.119
20,GGGCGCTA,-0.352
21,ATCCCAAG,-0.0639
22,ACCCACAC,-0.23
23,TGTCTAAA,0.38
24,CGTCCAAG,-0.0431
25,ATCTTATC,-0.0052

row,Sequence,PBM E-score
1,AATCGTTC,0.0614
2,ATCTGAAG,-0.159
3,AGTTGATG,0.111
4,CCTGGGTC,-0.144
5,AAGTACAG,0.0535
6,CGCAGCAA,-0.155
7,AAATTGCT,0.0514
8,GACGCAGA,0.0316
9,GGAAGGAC,0.283
10,GAGTTAAA,-0.0264
11,GAGGGCGC,-0.212
12,CATAGATG,-0.0856
13,GGAGAGCA,-0.149
14,CAGTAATA,0.231
15,CGAGCGGA,0.0354
16,CAATGCAC,-0.0497
17,GGGACTAC,-0.163
18,CTTGGTAC,0.141
19,AATATGCC,-0.141
20,CTGATTAA,0.108
21,CTTTTCAC,0.124
22,AGAGGCTC,-0.262
23,CATTAATG,0.133
24,ACGGGCAG,-0.0886
25,CCACAGTA,-0.0299

row,Sequence,PBM E-score
1,GAGATTAA,0.0845
2,ATTTGTTA,0.087
3,ATCTTCAT,-0.0449
4,CTTGTTTC,0.0482
5,GATGAACA,0.104
6,ACCCTCTA,-0.172
7,AACGACAC,0.139
8,ATCCGGAA,0.215
9,ATAGTCCC,-0.175
10,AACTGCGT,-0.0268
11,ACATGGAT,0.162
12,CATCTTTA,-0.0415
13,AAAATTAT,0.194
14,GCACTAGA,-0.149
15,AACGATAG,-0.0701
16,ATACGTTA,-0.0551
17,ATCAGAGC,0.0129
18,CTAGCCCC,-0.22
19,CCTCGTGC,-0.148
20,CAAGCGAC,0.018
21,ACTCATAG,-0.0128
22,GCTTAGCA,-0.148
